Test results published in paper PMC4336329 (PLoS ONE, 2015).
The campaign covered roughly 310,000 compounds. About 14,000 (4.5%) showed an effect of 50% or more. Effects have a minus sign here. This is one part of the list.

target: human ether-à-go-go-related gene (hERG) potassium channel (human, UniProt Q12809); experiment: primary screen, population patch clamp on CHO cells stably expressing hERG
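Also: peak tail current of the secondary pulse compared with the same well before compound.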

Chain of human ether-à-go-go-related gene (hERG) potassium channel (Q12809 whole entry, looked up): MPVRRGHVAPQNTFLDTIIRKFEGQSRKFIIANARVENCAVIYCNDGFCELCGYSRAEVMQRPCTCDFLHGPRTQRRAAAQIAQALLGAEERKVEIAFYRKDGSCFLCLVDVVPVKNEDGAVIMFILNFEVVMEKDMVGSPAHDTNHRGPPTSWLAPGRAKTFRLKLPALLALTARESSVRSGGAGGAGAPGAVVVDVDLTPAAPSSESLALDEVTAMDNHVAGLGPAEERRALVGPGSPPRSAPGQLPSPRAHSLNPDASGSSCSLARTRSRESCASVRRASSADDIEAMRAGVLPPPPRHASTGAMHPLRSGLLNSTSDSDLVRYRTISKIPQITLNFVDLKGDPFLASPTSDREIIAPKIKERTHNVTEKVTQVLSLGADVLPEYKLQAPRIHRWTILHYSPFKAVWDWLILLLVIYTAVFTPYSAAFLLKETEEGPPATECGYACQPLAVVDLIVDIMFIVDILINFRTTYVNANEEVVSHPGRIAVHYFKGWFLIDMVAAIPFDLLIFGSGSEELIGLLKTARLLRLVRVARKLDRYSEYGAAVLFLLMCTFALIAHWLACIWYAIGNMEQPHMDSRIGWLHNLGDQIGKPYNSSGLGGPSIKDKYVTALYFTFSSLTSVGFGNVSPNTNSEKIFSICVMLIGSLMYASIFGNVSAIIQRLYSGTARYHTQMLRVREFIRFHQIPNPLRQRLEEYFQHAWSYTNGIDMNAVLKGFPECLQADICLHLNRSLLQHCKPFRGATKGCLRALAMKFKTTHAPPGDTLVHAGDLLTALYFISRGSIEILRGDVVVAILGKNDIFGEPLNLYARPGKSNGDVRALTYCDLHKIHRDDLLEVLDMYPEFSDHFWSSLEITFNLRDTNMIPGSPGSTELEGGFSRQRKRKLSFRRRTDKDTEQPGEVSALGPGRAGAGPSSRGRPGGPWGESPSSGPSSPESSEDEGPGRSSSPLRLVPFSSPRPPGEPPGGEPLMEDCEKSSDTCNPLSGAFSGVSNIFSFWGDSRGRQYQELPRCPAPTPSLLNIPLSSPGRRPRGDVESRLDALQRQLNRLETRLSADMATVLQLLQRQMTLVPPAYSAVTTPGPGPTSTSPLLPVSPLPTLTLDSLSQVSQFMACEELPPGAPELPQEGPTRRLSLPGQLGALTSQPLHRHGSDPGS

Structure (SMILES) | hERG current change (%, negative = inhibition) at 10uM [%]
Cn1/c(=N/N=C/c2ccc(Cl)c([N+](=O)[O-])c2)sc2ccccc21 | 8.02
Cc1cc(C)cc(NS(=O)(=O)c2c(C(=O)N3CCOCC3)c(C)n(C)c2C)c1 | 11.8
CCc1cccc(NC(=O)c2cc(S(=O)(=O)N(C)C)ccc2N2CCCC2)c1 | -36.9
FC(F)(F)c1ccc(NCc2ccccn2)nc1 | -1.34
O=C(COC(=O)c1cc(-c2ccc(F)cc2)nc2ccccc12)NCC1CCCO1 (stereo not drawn) | -36.6
O=C(/C=C/c1cccs1)Nc1cccc(NC(=O)/C=C/c2cccs2)n1 | 6.25
COc1cc(C(=O)Nc2sc(C(=O)N3CCOCC3)c(C)c2C#N)cc(OC)c1OC | 10.3
CCNC(=S)Nc1cc(OCC)c(N2CCOCC2)cc1OCC | 5.43
O=C(N/N=C/C1CCCCC1)c1ccccc1-n1cccc1 | 0.893
CCN(CC)S(=O)(=O)c1cccc(-c2nnc(SCC(=O)NC3CCCCCCC3)n2N)c1 | -30.2
O=C(C[n+]1cc(-c2ccccc2)n2c1CCC2)Nc1nc(-c2ccccc2)cs1.[Cl-] | -35.1
c1ccc(N2CCOCCOCCOCCOCC2)cc1 | -2.67
O=C(COC(=O)C1=COCCO1)Nc1c(F)cccc1F | -0.215
COc1cccc(-c2nc(CS(=O)(=O)CC(=O)N3CCN(C4CCCCC4)CC3)c(C)o2)c1 | -24.6
O=C(NC1CCCC1)C1CCCN1C(=O)Nc1ccc(Cl)cc1 (stereo not drawn) | 0.574
O=c1[nH]c(NCCO)nnc1Cc1ccccc1 | 15.7
COCCNC(=O)CCCn1c(=O)c2cc(OC)c(OC)cc2n(CC(=O)NCCC2=CCCCC2)c1=O | -2.16
NC(=O)c1ccccc1NC(=O)/C=C/c1c(Cl)cccc1Cl | -31.3
Cc1c(/C=C/C(=O)c2ccc(Cl)s2)cnn1C | 2.76
COc1ccc(C(Cl)=C(c2ccc(OC)cc2)c2ccc(OC)cc2)cc1 | 26.2
CN1C(=O)N(CC(=O)Nc2nccs2)C(=O)C12CCCCC2 | 0.285
O=C(CC1SCCNC1=O)Nc1ccc(F)c(Cl)c1 (stereo not drawn) | 8.96

Structure (SMILES) | hERG current change (%, negative = inhibition) at 10uM [%]
COc1ccc(/C=N/NC(=O)C(=O)NCc2cccnc2)cc1 | 11
O=C(Nc1cccc2c1N(C(=O)c1ccco1)CCC2)c1ccco1 | 14.4
CCCc1c2c(cc3c(=O)cc(C(=O)OCC)oc13)CCCC2 | -0.971
CCc1ccc(-n2c(=O)c3ccc(C(=O)NCCc4ccccc4)cc3n(CC(N)=O)c2=O)cc1 | 14.6
O=C(COc1ccc(Br)cc1)NC(=S)Nc1ccccc1N1CCOCC1 | 13.7
COc1ccc(C(CNC(=O)c2ccc(Cl)s2)N2CCOCC2)cc1 (stereo not drawn) | -18.2
CC(NC(=O)C1c2ccccc2Oc2ccccc21)C1CCCO1 (stereo not drawn) | 13.1
COc1cccc(NC(=O)c2cccc(S(=O)(=O)N3CCN(Cc4ccccc4)CC3)c2)c1 | -0.239
Cc1cc(Br)c(NC(=O)COn2nnc3ccc(S(C)(=O)=O)cc32)c(Br)c1 | -1.77
CC(=O)Nc1sc(N/N=C\c2ccccc2)nc1-c1cccs1 | 13.2
CCOc1cccc(/C(O)=C2/C(=O)C(=O)N(CCN3CCOCC3)C2c2ccncc2)c1 (stereo not drawn) | -2.9
Cc1ccnc(NS(=O)(=O)c2ccc(NS(=O)(=O)c3ccccc3)cc2)n1 | -8.8
O=C(CNC(=O)c1ccco1)NCC(=O)OCc1ccc(Cl)cc1Cl | -40
Cc1ccc2c(CC(=O)NNC(=O)c3ccccc3O)coc2c1 | 4.63
NS(=O)(=O)c1ccc(N/N=C/c2ccc(C(=O)O)cc2)c([N+](=O)[O-])c1 | 0.688
Cc1ccc(NNC(=O)c2ccno2)cc1C | 3.69
COc1ccc(-c2cc(C)no2)cc1S(=O)(=O)N1CCN(C(=O)c2ccco2)CC1 | -6.28
COc1ccc(/C=N/Nc2ncnc(Cl)c2N)cc1OC | 1.21
COc1ccc(-c2cc(=O)c3c(O)cc(O)cc3o2)cc1 | 14.5
CC1CCN(C(=O)COC(=O)c2ccc(F)c(S(=O)(=O)N3CCOCC3)c2)CC1 | 2.38
O=C(Oc1ccc(Br)cc1)c1cccc(S(=O)(=O)N2CCOCC2)c1 | -35.6
COc1ccc(N(CC(=O)NC(C)c2ccccc2)S(=O)(=O)c2c(C)noc2C)cc1 (stereo not drawn) | 8.89

Structure (SMILES) | hERG current change (%, negative = inhibition) at 10uM [%]
CSc1nc(-c2ccccc2)nc(C(Cl)Cl)n1 | 8.69
COc1cc([N+](=O)[O-])ccc1NC(=S)Nn1cnnc1 | 23.1
COc1ccc(OC)c2[nH]c(=O)c(CCNS(=O)(=O)c3ccc(F)cc3)cc12 | 1.59
CCCC(=O)Nc1ccc(Oc2ccc(NC(=O)CCC)cc2)cc1 | 2.76
Cc1ccc(-c2n[nH]c(=S)n2/N=C\c2ccco2)cc1 | 24.1
O=c1cc(N2CCN(Cc3ccccc3)CC2)[nH]c(=O)n1-c1ccc(Br)cc1 | -10.7
CC(C)(C)C(=O)NC1CCN(S(=O)(=O)c2ccc(C(F)(F)F)cc2)CC1 | -18
CC(=O)Oc1ccc(C23CC4CC(CC(C4)C2)C3)cc1C(=O)O | 14.2
CCOC(=O)C1=C(C)N(C)C(C)=C(C(=O)OCC)C1c1ccncc1 | -9.93
CSC1=C(C#N)C(C)CC(=O)N1 (stereo not drawn) | 7.92
CCN(CC(=O)N1CCC(C(N)=O)CC1)S(=O)(=O)c1ccc(Cl)cc1 | 3.96
COc1ccccc1N(CC(=O)NCC1CCCO1)C(=O)CNS(=O)(=O)c1ccc(C)cc1 (stereo not drawn) | 11.5
CC(C)C(C(=O)Nc1nccs1)N1C(=O)c2ccccc2C1=O (stereo not drawn) | 22.7
O=C(c1ccccc1Cl)N1CCN(c2ccccn2)CC1 | 2.7
CCN1CCN(c2cc(C)c3cc(NC(=O)c4cccs4)ccc3n2)CC1 | -55.1
CCOC(=O)C1CCN(S(=O)(=O)c2cc(C(=O)OC)n(C)c2)CC1 | -8.49
Cc1[nH]c(=O)c(C(=O)/C=C/c2ccccc2F)c2c1CCCC2 | 0.445
O=[N+]([O-])c1cc(C(F)(F)F)ccc1N1CCN(CCO)CC1 | -43
Cc1cc(C)nc(NC(=O)C2c3ccccc3Oc3ccccc32)n1 | 7.78
COC(=O)C1=C(CCc2ccccc2)NC(=O)NC1c1ccc([N+](=O)[O-])cc1 (stereo not drawn) | -23.2
COCCNC(=O)CN(Cc1ccc2c(c1)OCO2)C(=O)CCC(=O)Nc1nccs1 | 13.6
COc1cccc(OC)c1C(=O)NN1CCCCC1 | 3.23

Structure (SMILES) | hERG current change (%, negative = inhibition) at 10uM [%]
COC(=O)c1ccc(C2C(C(=O)c3ccco3)=C(O)C(=O)N2c2cc(C)on2)cc1 (stereo not drawn) | 21.6
COc1cc(/C=C2\SC(=O)NC2=O)ccc1Oc1ccc([N+](=O)[O-])cc1[N+](=O)[O-] | 20.2
Cc1cccc(C(=O)NCCNc2nc3cc(C)c(C)cc3cc2C)c1 | -2.14
COc1cccc(/C=C/C(=O)Nc2ccccc2N2CCOCC2)c1 | -15.4
CCCCC1CCC(C(=O)Nc2ccc(S(=O)(=O)Nc3nccs3)cc2)CC1 (stereo not drawn) | 4.61
CCOc1ccc(C(=O)NCCC(=O)N2CCC3(CC2)NCCc2[nH]cnc23)cc1 | -5.54
COC(=O)c1ccc(CSc2nc3c(cnn3-c3ccc(F)cc3)c(=O)[nH]2)o1 | 13.1
CCOc1ccc(NC(=O)CSc2nnc(-c3ccccc3)n2N)cc1 | 6.02
O=C(C1CC1)N(CCN(C(=O)C1CC1)c1ccccc1)c1ccccc1 | -1.01
O=C(O)c1cc(N/N=C/c2ccc(OCc3ccccc3)cc2)ccc1Cl | -26.9
O=C(CNC(=O)c1ccc(Cl)cc1Cl)OCCOc1ccccc1 | 2.78
CCN1CCN(C(=O)CCNC(=O)Cn2ccc3ccccc3c2=O)CC1 | 13.9
CC(C)COc1ccc(C(=O)NC(Cc2c[nH]c3ccccc23)C(=O)NN)cc1 (stereo not drawn) | 15.1
COc1ccc([N+](=O)[O-])cc1NC(=O)CCSCCc1ccccn1 | -29.3
Nc1cc(=O)[nH]c(SCC(=O)Nc2ccc(Br)cc2)n1 | 20.6
CC1(C)CC2CC(C)(CN2C(=O)COc2cccc3ccccc23)C1 (stereo not drawn) | -3.79
C=CCOc1ccc(/C=N/NC(=O)C(=O)Nc2ccccn2)cc1OC | -20.9
COc1cccc(CN(CC2CCCO2)S(=O)(=O)c2ccc(S(=O)(=O)NCC3CCCO3)cc2)c1OC (stereo not drawn) | -11.1
COc1ccccc1CNC(=O)CCNS(=O)(=O)c1cccc2nsnc12 | -3.21
O=C(Nc1ccc(F)cc1)c1ccc(C(=O)N2CCOCC2)cc1 | 6.53
O=C(CCc1ccccc1)NNc1cc(N2CCCCC2)nc(N2CCCCC2)n1 | 15.2
